These results are taken from article PMC4336329 (PLoS ONE, 2015).

The campaign covered roughly 310,000 compounds. About 14,000 (4.5%) showed an effect of 50% or more. Effects have a minus sign here. The list shows a part of the results.
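Further: peak tail current of the secondary pulse compared with the same well before compound.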

In the experiment the target is human ether-à-go-go-related gene (hERG) potassium channel (human, UniProt Q12809). As to the kind of experiment: primary screen, population patch clamp on CHO cells stably expressing hERG.
human ether-à-go-go-related gene (hERG) potassium channel, sequence (Q12809 whole entry, looked up): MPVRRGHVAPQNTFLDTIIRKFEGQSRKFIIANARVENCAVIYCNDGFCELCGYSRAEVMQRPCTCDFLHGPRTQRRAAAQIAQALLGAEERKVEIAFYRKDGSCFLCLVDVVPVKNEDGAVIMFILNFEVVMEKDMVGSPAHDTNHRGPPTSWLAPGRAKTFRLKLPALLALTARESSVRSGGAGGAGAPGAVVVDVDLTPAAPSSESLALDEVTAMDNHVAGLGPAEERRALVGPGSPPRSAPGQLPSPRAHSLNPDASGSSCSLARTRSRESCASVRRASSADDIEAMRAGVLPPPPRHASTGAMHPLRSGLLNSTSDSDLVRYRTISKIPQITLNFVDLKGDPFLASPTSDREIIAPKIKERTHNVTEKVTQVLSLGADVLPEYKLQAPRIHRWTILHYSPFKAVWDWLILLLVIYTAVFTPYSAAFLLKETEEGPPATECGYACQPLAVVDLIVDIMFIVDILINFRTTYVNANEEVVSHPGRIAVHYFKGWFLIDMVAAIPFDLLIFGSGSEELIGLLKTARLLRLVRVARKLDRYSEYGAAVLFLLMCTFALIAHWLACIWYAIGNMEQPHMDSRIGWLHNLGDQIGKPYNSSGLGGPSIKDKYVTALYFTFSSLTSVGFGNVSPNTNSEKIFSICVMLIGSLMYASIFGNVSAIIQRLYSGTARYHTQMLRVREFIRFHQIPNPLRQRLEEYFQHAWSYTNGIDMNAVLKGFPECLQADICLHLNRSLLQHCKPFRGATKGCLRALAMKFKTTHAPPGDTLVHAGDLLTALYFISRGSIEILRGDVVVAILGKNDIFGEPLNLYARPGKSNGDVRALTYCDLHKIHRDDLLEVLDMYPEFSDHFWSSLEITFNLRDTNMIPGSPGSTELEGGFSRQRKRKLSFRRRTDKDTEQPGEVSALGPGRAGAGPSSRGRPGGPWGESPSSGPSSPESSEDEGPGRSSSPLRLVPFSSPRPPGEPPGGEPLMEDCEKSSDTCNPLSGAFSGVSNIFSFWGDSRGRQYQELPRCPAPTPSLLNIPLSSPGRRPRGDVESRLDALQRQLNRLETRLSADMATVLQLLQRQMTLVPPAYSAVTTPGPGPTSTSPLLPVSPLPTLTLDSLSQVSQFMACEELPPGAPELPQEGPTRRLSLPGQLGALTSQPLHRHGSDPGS
As for `Cc1cccc(OC(=O)c2sc(Cl)nc2C)c1`, the “hERG current change (%, negative = inhibition) at 10uM” value is recorded as -12.7%.

On to `CCS(=O)(=O)NCC(c1cccnc1)N1CCN(c2ccccc2OC)CC1` (stereo not drawn), for which the “hERG current change (%, negative = inhibition) at 10uM” value worked out at 0.421%.

Turning to `N=C1C(c2nc3ccccc3s2)=C(O)CN1C1CCC(O)CC1` (stereo not drawn), the “hERG current change (%, negative = inhibition) at 10uM” value is given as -4.86%.

`Cc1cccc(NC2=NC(=S)N(c3cccc(C(=O)O)c3)C23CCCCC3)c1`: the “hERG current change (%, negative = inhibition) at 10uM” value was determined as 17.2%.

In the case of `Cc1cc(C)cc(-n2c(SCC(=O)NCc3ccco3)nc3ccccc3c2=O)c1`, the “hERG current change (%, negative = inhibition) at 10uM” value was 3.69%.

With `COc1ccc(OC)c(S(=O)(=O)Nc2ccccc2C)c1`, the “hERG current change (%, negative = inhibition) at 10uM” value is recorded as 11.9%.

With `CN(CC(=O)NC1CC(C)(C)NC(C)(C)C1)S(=O)(=O)c1ccc(Br)cc1`, the “hERG current change (%, negative = inhibition) at 10uM” value was -2.22%.

As to `Cc1ccc(Cc2cnc(NC(=O)/C(C#N)=C/c3ccc(-c4ccc([N+](=O)[O-])cc4)o3)s2)cc1`, the “hERG current change (%, negative = inhibition) at 10uM” value was 4.54%.

On to `O=S(=O)(Cc1cc(Cl)nc(-c2cccnc2)n1)c1ccccc1`, for which the “hERG current change (%, negative = inhibition) at 10uM” value is listed as -14.4%.

Take `COc1ccc(/C=C(\C#N)c2n[nH]c(Cn3cncn3)n2)cc1`: the “hERG current change (%, negative = inhibition) at 10uM” value stood at 8.43%.

Consider `COCCCn1c(SCC(=O)NC(C)(C)C)nnc1-c1cccs1`, for which the “hERG current change (%, negative = inhibition) at 10uM” value was found to be 7.25%.

On to `CCOC(=O)c1c(C)[nH]c(C)c1C(=O)COC(=O)C1CCCN1S(=O)(=O)c1ccccc1F` (stereo not drawn), for which the “hERG current change (%, negative = inhibition) at 10uM” value was -2.63%.

With `CCN(CC)CCCC(C)N=C(c1ccccc1)c1c(O)n(C)c(=O)n(C)c1=O` (stereo not drawn), the “hERG current change (%, negative = inhibition) at 10uM” value is listed as 5.76%.

Consider `CCN1CCN(c2c(Cl)cccc2NC(=O)c2cc3ccccc3o2)CC1`, for which the “hERG current change (%, negative = inhibition) at 10uM” value is recorded as -23.4%.

Consider `O=C(COc1ccc(Cl)cc1Br)Nc1ccncc1`, for which the “hERG current change (%, negative = inhibition) at 10uM” value is -5.88%.

For `O=C(NC(=S)N1CCN(c2ccc(F)cc2)CC1)c1cccs1`, the “hERG current change (%, negative = inhibition) at 10uM” value is -35.1%.

Regarding `Cc1[nH]n(-c2ccccc2)c(=O)c1C=NCc1ccncc1`, the “hERG current change (%, negative = inhibition) at 10uM” value was -58.1%.

For the molecule `CSc1ncccc1C(=O)OCC(=O)N(C)C1CCS(=O)(=O)C1` (stereo not drawn), the “hERG current change (%, negative = inhibition) at 10uM” value worked out at 13.7%.

For `COC(=O)c1ccccc1NC(=O)CN(C)S(=O)(=O)c1ccc(OC)cc1`, the “hERG current change (%, negative = inhibition) at 10uM” value is 1.45%.

Take `O=CN1N=C(c2ccccc2)CC1c1ccc(Cl)cc1` (stereo not drawn): the “hERG current change (%, negative = inhibition) at 10uM” value is -14.3%.

`Cc1cc(C)nc(NS(=O)(=O)c2ccc(NC(=O)CSc3ncn[nH]3)cc2)n1`: the “hERG current change (%, negative = inhibition) at 10uM” value stood at 8.34%.

As to `Cc1cc(C)n(CCC(=O)N/N=C/c2ccccc2O)n1`, the “hERG current change (%, negative = inhibition) at 10uM” value is given as 5.57%.

As to `S=c1[nH]nc(CSc2nc3ccccc3s2)o1`, the “hERG current change (%, negative = inhibition) at 10uM” value came out at 12.1%.

Regarding `CN1C(=O)NC(c2ccccc2[N+](=O)[O-])C2=C1CCCC2=O` (stereo not drawn), the “hERG current change (%, negative = inhibition) at 10uM” value amounted to 10.1%.

For the molecule `COc1ccccc1OCCC(=O)OCC(=O)Nc1cc(S(=O)(=O)N2CCOCC2)ccc1Cl`, the “hERG current change (%, negative = inhibition) at 10uM” value is given as -22.5%.

For `Brc1ccccc1/C=N/Nc1nc2ccccc2o1`, the “hERG current change (%, negative = inhibition) at 10uM” value stood at 6.15%.

On to `O=C(NCCc1ccc(Cl)cc1)c1ccc2ccccc2n1`, for which the “hERG current change (%, negative = inhibition) at 10uM” value was -10.4%.

In the case of `CN(CC(=O)Nc1cccc(F)c1)C(=O)C1CC(=O)N(Cc2ccccc2)C1` (stereo not drawn), the “hERG current change (%, negative = inhibition) at 10uM” value was -1.85%.

Consider `CCOC(=O)c1cc(-c2cccc([N+](=O)[O-])c2)on1`, for which the “hERG current change (%, negative = inhibition) at 10uM” value came out at 16.3%.

For `COC(=O)c1ccc(CNC(=O)c2sccc2-c2ccccc2)cc1`, the “hERG current change (%, negative = inhibition) at 10uM” value is 2.77%.

With `COc1ccc(NC(=O)N2CCN(S(C)(=O)=O)CC2)cc1OC`, the “hERG current change (%, negative = inhibition) at 10uM” value is recorded as -0.713%.

Take `Cc1cc(=O)oc(C)c1C(=O)Nc1cccc2nonc12`: the “hERG current change (%, negative = inhibition) at 10uM” value is given as 1.53%.

For `O=C(/C=N/O)NCC1CCNCC1`, the “hERG current change (%, negative = inhibition) at 10uM” value was found to be 23.1%.

With `O=C(C1CCN(S(=O)(=O)c2ccccc2)CC1)N1CCCCC1`, the “hERG current change (%, negative = inhibition) at 10uM” value is 5.85%.

Consider `CC1=C(C(=O)Nc2cccc(C)c2C)C(c2cccs2)NC(=S)N1` (stereo not drawn), for which the “hERG current change (%, negative = inhibition) at 10uM” value is -7.83%.

With `CN(CC(=O)Nc1ccc(Cl)c(C(F)(F)F)c1)C(=O)CCC(=O)c1ccccc1`, the “hERG current change (%, negative = inhibition) at 10uM” value is listed as -12.6%.

Regarding `O=C(/C=C/c1ccc([N+](=O)[O-])cc1)Nc1cccc(C(=O)Nc2ccccc2C(=O)O)c1`, the “hERG current change (%, negative = inhibition) at 10uM” value stood at 24.2%.

For the molecule `COc1ccc(OC)c(NC(=O)C2CCCN(S(C)(=O)=O)C2)c1` (stereo not drawn), the “hERG current change (%, negative = inhibition) at 10uM” value was 1.83%.

On to `CSc1ccccc1C(=O)NC1CCCCC1`, for which the “hERG current change (%, negative = inhibition) at 10uM” value is -29.2%.

Consider `CN1CCN(c2ccc(C(=O)NC3CCCCC3)cc2[N+](=O)[O-])CC1`, for which the “hERG current change (%, negative = inhibition) at 10uM” value was -9.83%.

For the molecule `CCOC(=O)c1c(C)nc(-c2ccccc2)nc1N`, the “hERG current change (%, negative = inhibition) at 10uM” value stood at 7.25%.

As to `C=CCOc1ccc(C(=O)O)cc1Cl`, the “hERG current change (%, negative = inhibition) at 10uM” value is -3.19%.

For `Cc1cc(NS(=O)(=O)c2ccccc2)c(C)c(Cl)c1O`, the “hERG current change (%, negative = inhibition) at 10uM” value was -1.75%.

Take `COc1ccccc1NC(=O)Cc1nnc(SCC(=O)NC2CCCCC2)n1C`: the “hERG current change (%, negative = inhibition) at 10uM” value is on record as 18.9%.

With `CCOC(=O)C1=C(C)N(C)C(=O)NC1c1ccc(C)s1` (stereo not drawn), the “hERG current change (%, negative = inhibition) at 10uM” value was 5.79%.
